# Results taken from the supplement of paper PMC8728848.
# Some of the results follow.
# B1: Jacalin (Artocarpus integrifolia) (protein)
# chain: MAYSSLLSLSVLALLFSISSADTRKWFLANGINQNPIGIIEAAVGVSEDLLNLNGMEAKNDEQSGISQTVIVGPWGAKVSTSSNGKAFDDGAFTGIREINLSYNKETAIGDFQVVYDLNGSPYVGQNHKSFITGFTPVKISLDFPSEYIMEVSGYTGNVSGYVVVRSLTFKTNKKTYGPYGVTSGTPFNLPIENGLIVGFKGSIGYWLDYFSMYLSL
# Assays:
# Assay in all cases: glycan array binding signal (z-score within array); higher = stronger binding
# Settings in all cases: glycan notation: IUPAC condensed, linker removed
# [1] = target: Neu5Ac(a2-3)Gal(b1-4)[Fuc(a1-3)]GlcNAc(b1-6)[Gal(b1-3)]GalNAc
# Outline: (§1)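 Columns mapping to the same glycan were averaged after glycan names were converted to IUPAC-condensed notation. The data come from 3228 arrays in the Consortium for Functional Glycomics database, limited to those with an available protein sequence. Binding is reported as a within-array Z-score averaged across arrays of one protein sequence and across linkers.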
# [2] = target: Neu5Ac(a2-3)Gal(b1-4)[Fuc(a1-3)]GlcNAc(b1-6)[Neu5Ac(a2-3)Gal(b1-3)]GalNAc
# Outline: as §1
# [3] = target: Neu5Ac(a2-3)Gal(b1-4)[Fuc(a1-3)]GlcNAc6S
# Outline: as §1
# [4] = target: Neu5Ac(a2-3)Gal6S(b1-4)GlcNAc
# Outline: as §1
# [5] = target: Neu5Ac(a2-3)Gal6S(b1-4)[Fuc(a1-3)]GlcNAc
# Outline: as §1
# Neu5Ac(a2-3)GalNAc = target: Neu5Ac(a2-3)GalNAc
# Outline: as §1
# [6] = target: Neu5Ac(a2-3)GalNAc(b1-4)GlcNAc
# Outline: as §1
# [7] = target: Neu5Ac(a2-3)[GalNAc(b1-4)]Gal(b1-4)Glc
# Outline: as §1
# [8] = target: Neu5Ac(a2-3)[GalNAc(b1-4)]Gal(b1-4)GlcNAc
# Outline: as §1
# [9] = target: Neu5Ac(a2-3)[GalNAc(b1-4)]Gal(b1-4)GlcNAc(b1-3)GalNAc
# Outline: as §1
# [10] = target: Neu5Ac(a2-3)[Neu5Ac(a2-6)]GalNAc
# Outline: as §1
# Neu5Ac(a2-6)Gal = target: Neu5Ac(a2-6)Gal
# Outline: as §1
# [11] = target: Neu5Ac(a2-6)Gal(b1-3)GlcNAc(b1-3)[Gal(b1-4)GlcNAc(b1-6)]Gal(b1-4)Glc
# Outline: as §1
# Neu5Ac(a2-6)Gal(b1-4)Glc = target: Neu5Ac(a2-6)Gal(b1-4)Glc
# Outline: as §1
# [12] = target: Neu5Ac(a2-6)Gal(b1-4)GlcNAc
# Outline: as §1
# [13] = target: Neu5Ac(a2-6)Gal(b1-4)GlcNAc(b1-2)Man
# Outline: as §1
# [14] = target: Neu5Ac(a2-6)Gal(b1-4)GlcNAc(b1-2)Man(a1-3)Man(b1-4)GlcNAc(b1-4)GlcNAc
# Outline: as §1
# [15] = target: Neu5Ac(a2-6)Gal(b1-4)GlcNAc(b1-2)Man(a1-3)[Gal(b1-4)GlcNAc(b1-2)Man(a1-6)]Man(b1-4)GlcNAc(b1-4)GlcNAc
# Outline: as §1
# [16] = target: Neu5Ac(a2-6)Gal(b1-4)GlcNAc(b1-2)Man(a1-3)[GlcNAc(b1-2)Man(a1-6)]Man(b1-4)GlcNAc(b1-4)GlcNAc
# Outline: as §1
# [17] = target: Neu5Ac(a2-6)Gal(b1-4)GlcNAc(b1-2)Man(a1-3)[GlcNAc(b1-4)][Neu5Ac(a2-6)Gal(b1-4)GlcNAc(b1-2)Man(a1-6)]Man(b1-4)GlcNAc(b1-4)GlcNAc
# Outline: as §1
# [18] = target: Neu5Ac(a2-6)Gal(b1-4)GlcNAc(b1-2)Man(a1-3)[Man(a1-6)]Man(b1-4)GlcNAc(b1-4)GlcNAc
# Outline: as §1
# [19] = target: Neu5Ac(a2-6)Gal(b1-4)GlcNAc(b1-2)Man(a1-3)[Neu5Ac(a2-3)Gal(b1-4)GlcNAc(b1-2)Man(a1-6)]Man(b1-4)GlcNAc(b1-4)GlcNAc
# Outline: as §1
# [20] = target: Neu5Ac(a2-6)Gal(b1-4)GlcNAc(b1-2)Man(a1-3)[Neu5Ac(a2-6)Gal(b1-4)GlcNAc(b1-2)Man(a1-6)]Man(b1-4)GlcNAc(b1-4)GlcNAc
# Outline: as §1
# [21] = target: Neu5Ac(a2-6)Gal(b1-4)GlcNAc(b1-2)Man(a1-3)[Neu5Ac(a2-6)Gal(b1-4)GlcNAc(b1-2)Man(a1-6)]Man(b1-4)GlcNAc(b1-4)[Fuc(a1-6)]GlcNAc
# Outline: as §1
# [22] = target: Neu5Ac(a2-6)Gal(b1-4)GlcNAc(b1-2)Man(a1-6)Man(b1-4)GlcNAc(b1-4)GlcNAc
# Outline: as §1
# [23] = target: Neu5Ac(a2-6)Gal(b1-4)GlcNAc(b1-2)Man(a1-6)[Gal(b1-4)GlcNAc(b1-2)Man(a1-3)]Man(b1-4)GlcNAc(b1-4)GlcNAc
# Outline: as §1
# [24] = target: Neu5Ac(a2-6)Gal(b1-4)GlcNAc(b1-2)Man(a1-6)[GlcNAc(b1-2)Man(a1-3)]Man(b1-4)GlcNAc(b1-4)GlcNAc
# Outline: as §1
# [25] = target: Neu5Ac(a2-6)Gal(b1-4)GlcNAc(b1-2)Man(a1-6)[Man(a1-3)]Man(b1-4)GlcNAc(b1-4)GlcNAc
# Outline: as §1
# [26] = target: Neu5Ac(a2-6)Gal(b1-4)GlcNAc(b1-2)[Neu5Ac(a2-6)Gal(b1-4)GlcNAc(b1-4)]Man(a1-3)[GlcNAc(b1-4)][Neu5Ac(a2-6)Gal(b1-4)GlcNAc(b1-2)[Neu5Ac(a2-6)Gal(b1-4)GlcNAc(b1-6)]Man(a1-6)]Man(b1-4)GlcNAc(b1-4)GlcNAc
# Outline: as §1
# [27] = target: Neu5Ac(a2-6)Gal(b1-4)GlcNAc(b1-2)[Neu5Ac(a2-6)Gal(b1-4)GlcNAc(b1-4)]Man(a1-3)[GlcNAc(b1-4)][Neu5Ac(a2-6)Gal(b1-4)GlcNAc(b1-4)Man(a1-6)]Man(b1-4)GlcNAc(b1-4)GlcNAc
# Outline: as §1
# [28] = target: Neu5Ac(a2-6)Gal(b1-4)GlcNAc(b1-2)[Neu5Ac(a2-6)Gal(b1-4)GlcNAc(b1-6)]Man(a1-6)[Neu5Ac(a2-6)Gal(b1-4)GlcNAc(b1-2)Man(a1-3)][GlcNAc(b1-4)]Man(b1-4)GlcNAc(b1-4)GlcNAc
# Outline: as §1
# [29] = target: Neu5Ac(a2-6)Gal(b1-4)GlcNAc(b1-3)Gal(b1-3)GlcNAc
# Outline: as §1
# [30] = target: Neu5Ac(a2-6)Gal(b1-4)GlcNAc(b1-3)Gal(b1-4)GlcNAc
# Outline: as §1
# [31] = target: Neu5Ac(a2-6)Gal(b1-4)GlcNAc(b1-3)Gal(b1-4)GlcNAc(b1-2)Man(a1-3)[Neu5Ac(a2-6)Gal(b1-4)GlcNAc(b1-3)Gal(b1-4)GlcNAc(b1-2)Man(a1-6)]GalNAc
# Outline: as §1
# [32] = target: Neu5Ac(a2-6)Gal(b1-4)GlcNAc(b1-3)Gal(b1-4)GlcNAc(b1-3)Gal(b1-4)GlcNAc
# Outline: as §1
# [33] = target: Neu5Ac(a2-6)Gal(b1-4)GlcNAc(b1-3)Gal(b1-4)GlcNAc(b1-3)Gal(b1-4)GlcNAc(b1-2)Man(a1-3)[Neu5Ac(a2-6)Gal(b1-4)GlcNAc(b1-3)Gal(b1-4)GlcNAc(b1-3)Gal(b1-4)GlcNAc(b1-2)Man(a1-6)]GalNAc
# Outline: as §1
# [34] = target: Neu5Ac(a2-6)Gal(b1-4)GlcNAc(b1-3)Gal(b1-4)GlcNAc(b1-3)GalNAc
# Outline: as §1
# [35] = target: Neu5Ac(a2-6)Gal(b1-4)GlcNAc(b1-3)Gal(b1-4)GlcNAc(b1-3)[Neu5Ac(a2-6)Gal(b1-4)GlcNAc(b1-3)Gal(b1-4)GlcNAc(b1-6)]GalNAc
# Outline: as §1
# [36] = target: Neu5Ac(a2-6)Gal(b1-4)GlcNAc(b1-3)Gal(b1-4)GlcNAc(b1-6)[Gal(b1-3)]GalNAc
# Outline: as §1
# [37] = target: Neu5Ac(a2-6)Gal(b1-4)GlcNAc(b1-3)Gal(b1-4)[Fuc(a1-3)]GlcNAc(b1-3)Gal(b1-4)[Fuc(a1-3)]GlcNAc
# Outline: as §1
# [38] = target: Neu5Ac(a2-6)Gal(b1-4)GlcNAc(b1-3)GalNAc
# Outline: as §1
binder,measurement,setting,value
B1,glycan array binding signal (z-score),[1],-0.205
same,glycan array binding signal (z-score),[2],-0.244
same,glycan array binding signal (z-score),[3],-0.252
same,glycan array binding signal (z-score),[4],-0.273
same,glycan array binding signal (z-score),[5],-0.294
same,glycan array binding signal (z-score),Neu5Ac(a2-3)GalNAc,0.896
same,glycan array binding signal (z-score),[6],-0.285
same,glycan array binding signal (z-score),[7],-0.261
same,glycan array binding signal (z-score),[8],-0.28
same,glycan array binding signal (z-score),[9],0.492
same,glycan array binding signal (z-score),[10],-0.268
same,glycan array binding signal (z-score),Neu5Ac(a2-6)Gal,-0.271
same,glycan array binding signal (z-score),[11],-0.278
same,glycan array binding signal (z-score),Neu5Ac(a2-6)Gal(b1-4)Glc,-0.263
same,glycan array binding signal (z-score),[12],-0.257
same,glycan array binding signal (z-score),[13],-0.251
same,glycan array binding signal (z-score),[14],-0.253
same,glycan array binding signal (z-score),[15],-0.254
same,glycan array binding signal (z-score),[16],-0.259
same,glycan array binding signal (z-score),[17],-0.274
same,glycan array binding signal (z-score),[18],-0.26
same,glycan array binding signal (z-score),[19],-0.241
same,glycan array binding signal (z-score),[20],-0.263
same,glycan array binding signal (z-score),[21],0.151
same,glycan array binding signal (z-score),[22],-0.259
same,glycan array binding signal (z-score),[23],-0.267
same,glycan array binding signal (z-score),[24],-0.234
same,glycan array binding signal (z-score),[25],-0.111
same,glycan array binding signal (z-score),[26],-0.295
same,glycan array binding signal (z-score),[27],-0.277
same,glycan array binding signal (z-score),[28],-0.292
same,glycan array binding signal (z-score),[29],-0.291
same,glycan array binding signal (z-score),[30],-0.269
same,glycan array binding signal (z-score),[31],-0.167
same,glycan array binding signal (z-score),[32],-0.266
same,glycan array binding signal (z-score),[33],0.1
same,glycan array binding signal (z-score),[34],0.828
same,glycan array binding signal (z-score),[35],0.112
same,glycan array binding signal (z-score),[36],-0.208
same,glycan array binding signal (z-score),[37],-0.23
same,glycan array binding signal (z-score),[38],1.02
